# From PubChem BioAssay AID1240 (Sanford-Burnham Center for Chemical Genomics, 2008)
# In all, about 50,000 compounds went through this assay and about 800 (1.6%) showed an effect of 50% or more. The list shows a part of the results.
# Target: Bcl-2-like protein 10 (Homo sapiens) (UniProt Q9HD36)
# Experiment: Phenotype converters, Bcl-B/TR3 peptide binding displacement, primary biochemical FP (AID 1240);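 further: 0% = Bcl-B with tracer peptide and DMSO and 100% = tracer peptide lacking Bcl-B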
# Details: GST-Bcl-B / FITC-TR3 peptide fluorescence polarization; stronger effect = higher value; compound at 3.75 mg/L
# UniProt Q9HD36, sequence (Q9HD36 whole entry, looked up): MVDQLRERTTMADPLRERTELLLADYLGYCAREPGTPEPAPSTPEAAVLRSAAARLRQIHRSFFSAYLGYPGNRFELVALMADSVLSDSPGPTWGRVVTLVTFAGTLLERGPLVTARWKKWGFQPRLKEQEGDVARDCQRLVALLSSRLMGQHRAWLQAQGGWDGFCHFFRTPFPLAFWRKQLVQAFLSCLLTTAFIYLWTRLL
row,SMILES,displacement [%]
1,COc1ccc(OC)c(NC(=O)c2ccccc2[N+](=O)[O-])c1,8.3
2,COc1ccc(Br)cc1C(=O)Nc1cc(C(F)(F)F)cc(C(F)(F)F)c1,1.7
3,CCOC(=O)c1cnn(-c2ncnc3sc(CC)cc23)c1N,-7.3
4,COc1ccc(C=O)c2c(OC)cccc12,11.9
5,N/C(Cc1ccc([N+](=O)[O-])cc1)=N\OC(=O)c1ccc(Br)cc1,6.5
6,C=CCNC(=O)C(=O)NCCCOC(C)C,2.9
7,Cc1c(NC(=O)Nc2cc(F)c(F)cc2Cl)c(=O)n(-c2ccccc2)n1C,4.7
8,Cc1c([N+](=O)[O-])c([N+](=O)[O-])nn1CC(=O)Nc1sc2c(c1C#N)CCCC2,2.3
9,O=C(/C=C/c1ccccc1)Nc1ccc(I)cc1Cl,9.5
10,CC(=O)Nc1c(C)ccc2nsnc12,17.6
11,O=S(=O)(NCCOc1ccc(Cl)cc1)c1ccc2ccccc2c1,-4.5
12,O=C(Nc1ccc(S(=O)(=O)NC(=O)C2CCCCC2)cc1)c1cccc(Br)c1,7.8
13,Cc1ccc(-c2nc3ncccc3o2)cc1NC(=O)COc1cc(C)c(Cl)c(C)c1,11
14,Cc1cccc(C)c1OCC(O)Cn1c2ccccc2c2ccccc21 (stereo not given),12
15,Cc1cc(C=C2C(=O)NC(=S)NC2=O)c(-c2ccccc2)n1-c1ccccc1,162
16,O=C(O)c1ccccc1N(Cc1ccccc1)S(=O)(=O)c1ccccc1,4.6
17,CC(C)c1ccc(N2C(=O)NC(=O)/C(=C/c3ccc(Br)o3)C2=O)cc1,-15.8
18,O=C(/C=C/c1ccccc1Cl)Nc1cccc(F)c1,4.9
19,COc1cccc(C2=NN(C(=O)CCc3ccccc3)C(O)(C(F)(F)F)C2)c1 (stereo not given),0.8
20,Oc1ccc(/C=N/Nc2cc(-c3ccccc3)nc(-c3ccccc3)n2)cc1,-1.2
21,C=C1c2cc(C)ccc2NC(=O)N1c1ccc(Cl)c(Cl)c1,-3.1
22,CCc1cccc(C)c1NC(=O)/C=C/c1ccc(F)cc1,8.5

row,SMILES,displacement [%]
1,CCOC(=O)C(=O)N1CCN(c2cccc(Cl)c2)CC1,-1.6
2,Cc1c(NC(=O)c2ccccc2[N+](=O)[O-])cccc1-c1nc2cc(Cl)ccc2o1,34.1
3,O=C(Nc1ccccc1)NC1CCCCC1,6.9
4,O=C1c2cccc3cccc(c23)C(=O)N1Oc1ccc([N+](=O)[O-])cc1[N+](=O)[O-],9.1
5,COc1cc(C2C3=C(Nc4c2c(=O)n(C)c(=O)n4C)c2ccccc2C3=O)cc(OC)c1OC (stereo not given),1.8
6,NC(=O)NC(c1ccccc1)c1ccccc1Br (stereo not given),2.2
7,O=[N+]([O-])c1ccccc1-c1nc(-c2ccco2)c(-c2ccco2)[nH]1,31.6
8,COC(=O)c1c(NC(=O)CC2SCC(C(=O)OC)NC2=O)sc2c1CCCC2 (stereo not given),-3.8
9,COc1ccc(NC(=O)C(C)Oc2ccc(Cl)cc2Cl)c(OC)c1 (stereo not given),-4
10,COc1ccc(Br)cc1CNC(Cc1ccccc1)c1ccccc1 (stereo not given),7.5
11,Cc1cc(C)c2nc(Nc3nc4ccccc4c(=O)[nH]3)nc(C)c2c1,9.2
12,CCCCOC(=O)c1ccc(NC(=O)CSc2nc3ccccc3s2)cc1,-17.7
13,Clc1ccc(/C=N\Nc2nc3ccccc3o2)c(Cl)c1,15.1
14,Cc1ccc(NC(=O)C2CC(=O)N(c3ccc(Cl)cc3)C2)cc1 (stereo not given),9
15,CC(C)COc1ccc(C(=O)Nc2ccc(-c3nc4ncccc4o3)cc2)cc1,50.1
16,COc1cc(OC)c(OC)cc1CN1CCN(C(=O)c2ccccc2)CC1,-5.4
17,Clc1ccccc1CN1CCN(Cc2c[nH]c3ccccc23)CC1,-3
18,COc1ccc(C/C(N)=N/OC(=O)CCc2ccccc2)cc1,4.3
19,Cc1ccc(OCCNC(C)(C)C)c(Cl)c1,-2.1
20,Cc1n[nH]c(C)c1Sc1ccccc1N=Cc1c2ccccc2cc2ccccc12,13.2
21,O=[N+]([O-])c1ccc(-c2nc(-c3ccccc3)c(-c3cccs3)[nH]2)cc1,12.9
22,O=C(NCCOCc1ccccc1)c1ccccc1I,-14.6

row,SMILES,displacement [%]
1,COc1ccc(S(=O)(=O)N(CCc2ccccc2)CC(=O)Nc2cccc3ccccc23)cc1,16
2,Clc1ccccc1CN1CCN(C2CCCC2)CC1,-1
3,COc1ccc(N(Cc2ccc(C(=O)Nc3ccc(OC)c(OC)c3)cc2)S(=O)(=O)c2ccccc2)cc1,15.7
4,O=C(O)C1C2CCC(O2)C1C(=O)NCCC1=CCCCC1 (stereo not given),-3.9
5,COc1ccc(C2CC(=O)C3=C(C2)Nc2ccccc2NC3c2coc3c(Cl)cc(Cl)cc3c2=O)cc1 (stereo not given),-7.4
6,COc1ccc(CC(=O)NC(Cc2ccc(OC)c(OC)c2)C(=O)O)cc1OC (stereo not given),-9.7
7,CC(C)(C)Cc1ccc(C2C(=O)c3ccccc3C2=O)cc1,-2.3
8,Cc1cc(OCCCn2ccnc2)cc(C)c1Cl,14.5
9,C#CCn1cc(/C=C(/C#N)C(=O)Nc2cccc(Br)c2)c2ccccc21,-1.7
10,O=C(/C=C/c1ccccc1OCc1ccccc1)c1cccc(Br)c1,-2.9
11,CC(C(=O)O)N1C(=O)/C(=C/c2ccc([N+](=O)[O-])cc2)SC1=S (stereo not given),12.2
12,CCOc1cc(/C=N/NC(=O)c2ccncc2)ccc1OC(=O)c1ccc([N+](=O)[O-])cc1,6.9
13,CC(=O)NS(=O)(=O)c1ccc(NC(=O)c2ccc([N+](=O)[O-])cc2[N+](=O)[O-])cc1,7.5
14,Cc1cc(Br)ccc1NC(=O)c1ccc(NC(=O)C(C)(C)C)cc1,8.5
15,COc1ccc(/C=N/N=C2\NC(=O)C(CC(=O)O)S2)c(OC)c1 (stereo not given),-22.5
16,Cc1ccc(S(=O)(=O)N/N=C/c2ccc3c(c2)OCO3)cc1[N+](=O)[O-],12.9
17,COc1ccc(C(NC(=O)c2ccccc2)c2ccc3cccnc3c2O)cc1 (stereo not given),-4.7
18,COc1ccc(NC(=O)/C(=C/c2ccccc2Cl)NC(=O)c2ccc(C)cc2)cc1,-3.8
19,COc1ccc(/C=C/C(=O)NCCc2c[nH]c3ccccc23)cc1OC,-5
20,Cc1n(C)c2cccnc2[n+]1C,1.7
21,CCc1c(C)c(C#N)c2nc3ccccc3n2c1Nc1ccc(OC)cc1,1.8
22,CCOC(=O)c1nnsc1NC(=O)Nc1ccccc1,-9.5

row,SMILES,displacement [%]
1,Cc1nn(C(=O)c2ccc(Cl)cc2)c(C)c1Sc1ccc([N+](=O)[O-])cc1,0.4
2,COc1ccccc1NC(=O)CC1S/C(=N\N=C(/C)C(C)(C)C)NC1=O (stereo not given),-2.1
3,COc1ccc(-c2noc(-c3ccc(I)cc3)n2)cc1,-1.2
4,CS(=O)(=O)N1CCN(Cc2ccccc2Br)CC1,11
5,Cc1cc(C)cc(N2C(=O)NC(=O)/C(=C\c3cn(C)c4ccccc34)C2=O)c1,144
6,O=C(O)CCCCCN1C(=O)/C(=C\c2ccc(-c3ccc(Cl)c(Cl)c3)o2)SC1=S,21.2
7,CN(C)S(=O)(=O)c1ccc(C(=O)Nc2ccc(F)cc2F)cc1,12.2
8,COC(CNS(=O)(=O)c1ccc(Cl)cc1)c1ccccc1 (stereo not given),5.3
9,CC(C)N1C(=O)C(=Cc2c(N(C)Cc3ccccc3)nc3ccccn3c2=O)SC1=S,27.4
10,CCN(Cc1ccccc1)C(=O)CN1C(=O)c2ccccc2C1=O,13.8
11,COC(=O)C1=C(C)NC(=O)CC1c1ccccc1C(F)(F)F (stereo not given),-0.9
12,O=C1/C(=C/c2ccc(Br)o2)SC(=S)N1Cc1ccccc1,8
13,O=C(CCCOc1ccc(Cl)cc1Cl)Nc1ccccn1,-6.7
14,O=C(CCN1C(=O)c2ccccc2C1=O)NC1CCCC1,8.5
15,Cc1ccc(/C=C/C(=O)Nc2ccccc2Cl)o1,-5.9
16,COc1cc(CN2CCN(C(=O)c3ccccc3)CC2)cc(OC)c1O,1.5
17,COC(=O)C1=C(C)NC2=C(C(=O)CCC2)C1c1ccc(OC)cc1OC (stereo not given),-1.7
18,COc1ccccc1OCCOc1cccc(/C=N/n2cnnc2)c1,-0.2
19,Oc1ccccc1C(=S)N1CCCC1,2.9
20,C=C(C)C(=O)Nc1cccc(C(=O)NCC(C)C)c1,5.1
21,CC(=O)N1CCN(c2ccc(NC(=O)c3cccc(Br)c3)cc2)CC1,4.8
22,O=C1/C(=C/C=C/c2ccccc2)SC(=S)N1Cc1ccco1,99.7

row,SMILES,displacement [%]
1,COc1ccc(C2/C(=C(\O)c3ccc(C)cc3)C(=O)C(=O)N2CCCC(=O)O)c(OC)c1 (stereo not given),4.7
2,COc1ccc(S(=O)(=O)N2CCN(Cc3cccc4ccccc34)CC2)cc1,-18.5
3,CCN1C(=O)/C(=C\c2cc(Cl)ccc2OCc2ccccc2)SC1=S,1.6
4,COC(=O)c1c(NC(=O)c2ccc([N+](=O)[O-])c(C)c2)sc2c1CCCC2,-11.6
5,O=C(Nc1cccc(NC(=O)c2ccc(Cl)cc2Cl)c1)c1ccc2ccccc2c1,-9.1
6,CCn1c(SCC(=O)c2ccccc2)nc2sc3c(c2c1=O)CC(C)(C)OC3,-8.9
7,Cc1cc(C(=O)Nc2ccc(O)c(C(=O)O)c2)c(C)o1,-3
8,COc1ccc(CN=Cc2c(O)n(-c3ccccc3Cl)c(=O)[nH]c2=O)cc1,-8.4
9,O=[N+]([O-])c1ccccc1S(=O)(=O)NCc1ccc2c(c1)OCO2,-3.4
10,CCC(=O)NNC(=O)COc1ccc(Cl)cc1,-8.3
11,CC(C)(C)c1cc(Br)ccc1OCC(=O)Nc1cccc([N+](=O)[O-])c1,-7.3
12,O=C(c1ccccc1)c1cc(Br)ccc1NC(=O)c1nc[nH]c1C(=O)O,3.9
13,Cc1ccc(-c2nnc(Nc3ccc4c(c3)ncn4C)c3ccccc23)cc1,0.8
14,O=C(CCCN1C(=O)c2ccccc2C1=O)Nc1ccccc1C(=O)N1CCCC1,12.9
15,CCN(CC)CCn1c(=N)n(CCO)c2ccccc21,-4.7
16,O=C1NC(=O)C(=Cc2ccccc2OCc2ccc(F)cc2)C(=O)N1,6.9
17,CC1=C(C(=O)Nc2ccccc2Cl)C(c2ccc(C(C)C)cc2)NC(=S)N1 (stereo not given),-2.8
18,Cc1occc1C(=O)Nc1cccc(Cl)c1,0.6
19,COc1cc(Br)ccc1NC(=O)c1ccccc1-c1ccccc1C(=O)O,-5.9
20,COC(=O)C(C)N(C(=O)c1cccc2ccccc12)c1c(C)cccc1C (stereo not given),11.9
21,CC(=O)/C(CN1CCCCC1)=N/O,5.4
22,CCC(=O)c1ccc(OCC(O)COc2ccc(C(=O)CC)cc2OC)c(OC)c1,-8.3
